# The list shows a part of the results.
# B1: Cohesin-marm-DC-ASGPR (protein)
# chain: LDITSHHHHHHDDLDAVRIKVDTVNAKPGDTVRIPVRFSGIPSKGIANCDFVYSYDPNVLEIIEIEPGDIIVDPNPDKSFDTAVYPDRKIIVFLFAEDSGTGAYAITKDGVFATIVAKVKEGAPNGLSVIKFVEVGGFANNDLVEQKTQFFDGGVNVGDTTEPATPTTPVTTPTTTDDLDAASSKFQRDLVTLRTDFSNFTSNTLAEIQALTSQGSSLQETIASLKAEVEGHKQELQAGASELQEHNKQKAHLGRCPHTCVCPSSFVCVPVHSEILLRVQQLVQDLNKLSCQVAILKNNATTERTCCPINWVEHQGSCYWFSRSGKTWPEAERYCQLENTHLVVINSREEQNFVQAHLGSAYTWMGLSDPEGVWKWVDGTDYSSGFQNWKPGQPDDWQGHGLGGGEDCAHFHPDGRWNDDVCQRSYHWVCEAGLTQASQDSHAS
# Legend:
# Assay in all cases: glycan array binding signal (z-score within array); higher = stronger binding
# Details in all cases: glycan notation: IUPAC condensed, linker removed
# [1] = molecular target: Fuc(a1-2)Gal(b1-4)[Fuc(a1-3)]GlcNAc(b1-2)Man(a1-3)[Fuc(a1-2)Gal(b1-4)[Fuc(a1-3)]GlcNAc(b1-2)Man(a1-6)]Man(b1-4)GlcNAc(b1-4)[Fuc(a1-6)]GlcNAc
# Summary of the method: (§1)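 Columns mapping to the same glycan were averaged after glycan names were converted to IUPAC-condensed notation. The data come from 3228 arrays in the Consortium for Functional Glycomics database, limited to those with an available protein sequence. Binding is reported as a within-array Z-score averaged across arrays of one protein sequence and across linkers.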
# [2] = molecular target: Fuc(a1-2)Gal(b1-4)[Fuc(a1-3)]GlcNAc(b1-2)[Fuc(a1-2)Gal(b1-4)[Fuc(a1-3)]GlcNAc(b1-4)]Man(a1-3)[Fuc(a1-2)Gal(b1-4)[Fuc(a1-3)]GlcNAc(b1-2)Man(a1-6)]Man(b1-4)GlcNAc(b1-4)GlcNAc
# Summary of the method: as §1
# [3] = molecular target: Fuc(a1-2)Gal(b1-4)[Fuc(a1-3)]GlcNAc(b1-3)Gal(b1-4)[Fuc(a1-3)]GlcNAc
# Summary of the method: as §1
# [4] = molecular target: Fuc(a1-2)Gal(b1-4)[Fuc(a1-3)]GlcNAc(b1-3)Gal(b1-4)[Fuc(a1-3)]GlcNAc(b1-3)Gal(b1-4)[Fuc(a1-3)]GlcNAc
# Summary of the method: as §1
# [5] = molecular target: Fuc(a1-2)Gal(b1-4)[Fuc(a1-3)]GlcNAc(b1-3)GalNAc
# Summary of the method: as §1
# [6] = molecular target: Fuc(a1-2)Gal(b1-4)[Fuc(a1-3)]GlcNAc(b1-3)[Neu5Ac(a2-6)Gal(b1-4)GlcNAc(b1-6)]Gal(b1-4)Glc
# Summary of the method: as §1
# [7] = molecular target: Fuc(a1-2)Gal3S(b1-4)GlcNAc
# Summary of the method: as §1
# [8] = molecular target: Fuc(a1-2)Gal6S(b1-3)GlcNAc
# Summary of the method: as §1
# [9] = molecular target: Fuc(a1-2)Gal6S(b1-3)GlcNAc6S
# Summary of the method: as §1
# Fuc(a1-2)Gal6S(b1-4)Glc = molecular target: Fuc(a1-2)Gal6S(b1-4)Glc
# Summary of the method: as §1
# [10] = molecular target: Fuc(a1-2)Gal6S(b1-4)Glc6S
# Summary of the method: as §1
# Fuc(a1-2)[Gal(a1-3)]Gal = molecular target: Fuc(a1-2)[Gal(a1-3)]Gal
# Summary of the method: as §1
# [11] = molecular target: Fuc(a1-2)[Gal(a1-3)]Gal(b1-3)GalNAc
# Summary of the method: as §1
# [12] = molecular target: Fuc(a1-2)[Gal(a1-3)]Gal(b1-3)GalNAc(b1-3)Gal(a1-4)Gal(b1-4)Glc
# Summary of the method: as §1
# [13] = molecular target: Fuc(a1-2)[Gal(a1-3)]Gal(b1-3)GlcNAc
# Summary of the method: as §1
# [14] = molecular target: Fuc(a1-2)[Gal(a1-3)]Gal(b1-3)GlcNAc(b1-2)Man(a1-3)[Fuc(a1-2)[Gal(a1-3)]Gal(b1-3)GlcNAc(b1-2)Man(a1-6)]Man(b1-4)GlcNAc(b1-4)GlcNAc
# Summary of the method: as §1
# [15] = molecular target: Fuc(a1-2)[Gal(a1-3)]Gal(b1-3)GlcNAc(b1-2)Man(a1-3)[Fuc(a1-2)[Gal(a1-3)]Gal(b1-3)GlcNAc(b1-2)Man(a1-6)]Man(b1-4)GlcNAc(b1-4)[Fuc(a1-6)]GlcNAc
# Summary of the method: as §1
# [16] = molecular target: Fuc(a1-2)[Gal(a1-3)]Gal(b1-3)GlcNAc(b1-3)GalNAc
# Summary of the method: as §1
# [17] = molecular target: Fuc(a1-2)[Gal(a1-3)]Gal(b1-3)GlcNAc(b1-6)GalNAc
# Summary of the method: as §1
# [18] = molecular target: Fuc(a1-2)[Gal(a1-3)]Gal(b1-4)Glc
# Summary of the method: as §1
# [19] = molecular target: Fuc(a1-2)[Gal(a1-3)]Gal(b1-4)GlcNAc
# Summary of the method: as §1
# [20] = molecular target: Fuc(a1-2)[Gal(a1-3)]Gal(b1-4)GlcNAc(b1-2)Man
# Summary of the method: as §1
# [21] = molecular target: Fuc(a1-2)[Gal(a1-3)]Gal(b1-4)GlcNAc(b1-2)Man(a1-3)[Fuc(a1-2)[Gal(a1-3)]Gal(b1-4)GlcNAc(b1-2)Man(a1-6)]Man(b1-4)GlcNAc(b1-4)GlcNAc
# Summary of the method: as §1
# [22] = molecular target: Fuc(a1-2)[Gal(a1-3)]Gal(b1-4)GlcNAc(b1-2)Man(a1-3)[Fuc(a1-2)[Gal(a1-3)]Gal(b1-4)GlcNAc(b1-2)Man(a1-6)]Man(b1-4)GlcNAc(b1-4)[Fuc(a1-6)]GlcNAc
# Summary of the method: as §1
# [23] = molecular target: Fuc(a1-2)[Gal(a1-3)]Gal(b1-4)GlcNAc(b1-3)GalNAc
# Summary of the method: as §1
# [24] = molecular target: Fuc(a1-2)[Gal(a1-3)]Gal(b1-4)GlcNAc(b1-3)[Fuc(a1-2)[Gal(a1-3)]Gal(b1-4)GlcNAc(b1-6)]GalNAc
# Summary of the method: as §1
# [25] = molecular target: Fuc(a1-2)[Gal(a1-3)]Gal(b1-4)GlcNAc(b1-6)GalNAc
# Summary of the method: as §1
# [26] = molecular target: Fuc(a1-2)[Gal(a1-3)]Gal(b1-4)[Fuc(a1-3)]Glc
# Summary of the method: as §1
# [27] = molecular target: Fuc(a1-2)[Gal(a1-3)]Gal(b1-4)[Fuc(a1-3)]GlcNAc
# Summary of the method: as §1
# [28] = molecular target: Fuc(a1-2)[Gal(a1-3)]Gal(b1-4)[Fuc(a1-3)]GlcNAc(b1-3)GalNAc
# Summary of the method: as §1
# [29] = molecular target: Fuc(a1-2)[Gal(a1-4)]Gal(b1-4)GlcNAc
# Summary of the method: as §1
# [30] = molecular target: Fuc(a1-2)[GalNAc(a1-3)]Gal
# Summary of the method: as §1
# [31] = molecular target: Fuc(a1-2)[GalNAc(a1-3)]Gal(b1-3)GalNAc(a1-3)[Fuc(a1-2)]Gal(b1-4)GlcNAc
# Summary of the method: as §1
# [32] = molecular target: Fuc(a1-2)[GalNAc(a1-3)]Gal(b1-3)GalNAc(b1-3)Gal(a1-4)Gal(b1-4)Glc
# Summary of the method: as §1
# [33] = molecular target: Fuc(a1-2)[GalNAc(a1-3)]Gal(b1-3)GlcNAc
# Summary of the method: as §1
# [34] = molecular target: Fuc(a1-2)[GalNAc(a1-3)]Gal(b1-3)GlcNAc(b1-2)Man(a1-3)[Fuc(a1-2)[GalNAc(a1-3)]Gal(b1-3)GlcNAc(b1-2)Man(a1-6)]Man(b1-4)GlcNAc(b1-4)GlcNAc
# Summary of the method: as §1
# [35] = molecular target: Fuc(a1-2)[GalNAc(a1-3)]Gal(b1-3)GlcNAc(b1-2)Man(a1-3)[Fuc(a1-2)[GalNAc(a1-3)]Gal(b1-3)GlcNAc(b1-2)Man(a1-6)]Man(b1-4)GlcNAc(b1-4)[Fuc(a1-6)]GlcNAc
# Summary of the method: as §1
# [36] = molecular target: Fuc(a1-2)[GalNAc(a1-3)]Gal(b1-3)GlcNAc(b1-3)GalNAc
# Summary of the method: as §1
binder,measurement,setting,value
B1,glycan array binding signal (z-score),[1],-0.298
same,glycan array binding signal (z-score),[2],-0.297
same,glycan array binding signal (z-score),[3],-0.308
same,glycan array binding signal (z-score),[4],-0.299
same,glycan array binding signal (z-score),[5],-0.263
same,glycan array binding signal (z-score),[6],-0.298
same,glycan array binding signal (z-score),[7],-0.307
same,glycan array binding signal (z-score),[8],-0.302
same,glycan array binding signal (z-score),[9],-0.143
same,glycan array binding signal (z-score),Fuc(a1-2)Gal6S(b1-4)Glc,-0.285
same,glycan array binding signal (z-score),[10],-0.277
same,glycan array binding signal (z-score),Fuc(a1-2)[Gal(a1-3)]Gal,-0.3
same,glycan array binding signal (z-score),[11],-0.303
same,glycan array binding signal (z-score),[12],-0.308
same,glycan array binding signal (z-score),[13],0.045
same,glycan array binding signal (z-score),[14],-0.292
same,glycan array binding signal (z-score),[15],-0.292
same,glycan array binding signal (z-score),[16],-0.293
same,glycan array binding signal (z-score),[17],4.11
same,glycan array binding signal (z-score),[18],-0.168
same,glycan array binding signal (z-score),[19],-0.282
same,glycan array binding signal (z-score),[20],-0.239
same,glycan array binding signal (z-score),[21],-0.283
same,glycan array binding signal (z-score),[22],-0.238
same,glycan array binding signal (z-score),[23],-0.309
same,glycan array binding signal (z-score),[24],-0.22
same,glycan array binding signal (z-score),[25],-0.204
same,glycan array binding signal (z-score),[26],-0.294
same,glycan array binding signal (z-score),[27],-0.288
same,glycan array binding signal (z-score),[28],-0.311
same,glycan array binding signal (z-score),[29],-0.299
same,glycan array binding signal (z-score),[30],-0.083
same,glycan array binding signal (z-score),[31],-0.272
same,glycan array binding signal (z-score),[32],-0.252
same,glycan array binding signal (z-score),[33],-0.141
same,glycan array binding signal (z-score),[34],-0.176
same,glycan array binding signal (z-score),[35],-0.291
same,glycan array binding signal (z-score),[36],-0.221

# Reference: the supplement of paper PMC8728848
